Here are results for 29 compounds from the antibiotic and cytotoxicity screens of Wong et al. (2023).

The subject of one experiment is HSkMC. Kind of experiment: cytotoxicity call (relative viability < 0.9). The conditions noted are these: 10 µM.
The next experiment relates to HepG2. Kind of experiment: cytotoxicity call (relative viability < 0.9). The conditions noted are these: 10 µM.
The subject of a further experiment is S. aureus RN4220. Kind of experiment: growth inhibition call (relative growth <= 0.2). Particulars: 50 µM.

Some of the results follow.

For the compound `C[C@H](CO)N1C[C@H](C)[C@H](CN(C)Cc2ccc(Oc3ccccc3)cc2)Oc2ccc(NC(=O)c3ccncc3)cc2C1=O`, the cytotoxicity call with HSkMC is “inactive”. In addition, the cytotoxicity call in the experiment on HepG2 was “active”. The growth inhibition call in the experiment with S. aureus RN4220 was “inactive”.

For the compound `O=C([O-])C(O)C(O)C(O)C(O)CO.[Na+]` (configuration not stated), the cytotoxicity call in the experiment on HSkMC and in the experiment with HepG2 was “inactive” throughout. Further, in the experiment on S. aureus RN4220, the growth inhibition call is “inactive”.

Consider `CC(=O)Nc1c(I)cc(I)c(C(=O)O)c1I`, for which the cytotoxicity call in the experiment on HSkMC and with HepG2 was “inactive” in each case. Also, the growth inhibition call in the experiment with S. aureus RN4220 is “inactive”.

On to `C[C@H]1CCCCO[C@@H](CN(C)Cc2ccc(C(F)(F)F)cc2)[C@@H](C)CN([C@@H](C)CO)C(=O)c2cc(NS(=O)(=O)c3cccs3)ccc2O1`, for which the cytotoxicity call with HSkMC and in the experiment on HepG2 was “inactive” in each case. In addition, the growth inhibition call with S. aureus RN4220 was “inactive”.

In the case of `C[C@@H]1CN([C@H](C)CO)C(=O)c2cc(NS(C)(=O)=O)ccc2O[C@H]1CN(C)C(=O)Nc1ccccc1`, the cytotoxicity call in the experiment on HSkMC and in the experiment with HepG2 was “inactive” throughout. Moreover, the growth inhibition call with S. aureus RN4220 was “inactive”.

As for `CCOC(=O)C(C)(C)Oc1ccc(Cl)cc1`, the cytotoxicity call in the experiment on HSkMC and with HepG2 was “inactive” throughout. In the experiment on S. aureus RN4220, the growth inhibition call is “inactive”.

As for `C[C@@H](O)C#Cc1ccc2c(c1)O[C@@H](CN(C)C(=O)Nc1ccccc1)[C@@H](C)CN([C@@H](C)CO)S2(=O)=O`, the cytotoxicity call with HSkMC and in the experiment with HepG2 was “inactive” in each case. For the same compound, the growth inhibition call with S. aureus RN4220 was “inactive”.

For `Cc1noc(C)c1S(=O)(=O)Nc1ccc2c(c1)CC(=O)N([C@@H](C)CO)C[C@H](C)[C@@H](CN(C)S(C)(=O)=O)O2`, the cytotoxicity call in the experiment with HSkMC and in the experiment with HepG2 was “inactive” each time. For the same compound, the growth inhibition call with S. aureus RN4220 is “inactive”.

`CC(C)(C)c1cc(NC(=O)Nc2ccc(Oc3ccnc4nc(O)cnc34)cc2F)n(-c2ccccc2)n1`: the cytotoxicity call with HSkMC was “active”. Moreover, the cytotoxicity call in the experiment with HepG2 was “inactive”. Moreover, the growth inhibition call with S. aureus RN4220 is “inactive”.

For `C[C@H]1CN([C@@H](C)CO)C(=O)Cc2cc(NC(=O)Cn3cnnn3)ccc2O[C@@H]1CN(C)C(=O)Nc1ccccc1`, the cytotoxicity call with HSkMC and in the experiment with HepG2 was “inactive” throughout. For the same compound, the growth inhibition call in the experiment on S. aureus RN4220 was “inactive”.

In the case of `COc1cccc(-c2cn(CC[C@H]3CC[C@@H](NS(=O)(=O)c4ccccc4Cl)[C@@H](CO)O3)nn2)c1`, the cytotoxicity call with HSkMC and in the experiment with HepG2 was “inactive” throughout. Moreover, in the experiment on S. aureus RN4220, the growth inhibition call is “inactive”.

For the compound `Cc1noc(C)c1NC(=O)Nc1ccc2c(c1)C(=O)N([C@@H](C)CO)C[C@@H](C)[C@@H](CN(C)CC1CC1)OCCCC[C@@H](C)O2`, the cytotoxicity call in the experiment with HSkMC and with HepG2 was “inactive” in each case. For the same compound, the growth inhibition call with S. aureus RN4220 is “inactive”.

Regarding `CC(=O)N(O)CCCCCNC(=O)CCC(=O)N(O)CCCCCNC(=O)CCC(=O)N(O)CCCCCN.CS(=O)(=O)O`, the cytotoxicity call with HSkMC was “inactive”. Further, the cytotoxicity call in the experiment with HepG2 is “active”. In addition, the growth inhibition call with S. aureus RN4220 is “inactive”.

For `COc1ccc2c3c(n(c2c1)C)[C@@H](CO)N(C[C@]13CCN(CC1)C(=O)Nc1ccc(cc1F)F)C(=O)Nc1ccc(cc1)F`, the cytotoxicity call in the experiment on HSkMC and in the experiment on HepG2 was “inactive” in each case. Besides, the growth inhibition call in the experiment with S. aureus RN4220 was “inactive”.

With `COc1ccc(NC(=O)N(C)C[C@H]2OCCCC[C@H](C)Oc3ccc(NC(=O)Nc4ccccc4)cc3C(=O)N([C@@H](C)CO)C[C@@H]2C)cc1`, the cytotoxicity call in the experiment on HSkMC and in the experiment on HepG2 was “inactive” throughout. Further, the growth inhibition call in the experiment with S. aureus RN4220 is “inactive”.

Regarding `C[C@@H]1CN([C@@H](C)CO)C(=O)Cc2cc(NC(=O)CCC(F)(F)F)ccc2O[C@@H]1CN(C)S(=O)(=O)c1cccs1`, the cytotoxicity call with HSkMC and in the experiment on HepG2 was “inactive” throughout. Moreover, in the experiment on S. aureus RN4220, the growth inhibition call was “inactive”.

Turning to `CC(C)NC(=O)N(C)C[C@H]1Oc2c(NS(=O)(=O)c3cccs3)cccc2C(=O)N([C@@H](C)CO)C[C@H]1C`, the cytotoxicity call in the experiment with HSkMC and in the experiment on HepG2 was “inactive” each time. In addition, the growth inhibition call with S. aureus RN4220 was “inactive”.

Take `COc1ccccc1CNC(=O)C[C@@H]1CC[C@H]2[C@@H](COC[C@@H](O)CN2C(=O)Nc2ccc(F)cc2)O1`: the cytotoxicity call in the experiment on HSkMC and in the experiment on HepG2 was “inactive” in each case. The growth inhibition call in the experiment with S. aureus RN4220 is “inactive”.

Turning to `CC(=O)c1cncnc1`, the cytotoxicity call in the experiment with HSkMC and in the experiment with HepG2 was “inactive” in each case. In addition, in the experiment on S. aureus RN4220, the growth inhibition call is “inactive”.

For `O=C(C[C@H]1C[C@H]2c3cc(NS(=O)(=O)c4ccc(F)cc4)ccc3O[C@H]2[C@@H](CO)O1)NCCN1CCCCC1`, the cytotoxicity call in the experiment with HSkMC and in the experiment on HepG2 was “inactive” throughout. In addition, the growth inhibition call in the experiment on S. aureus RN4220 was “inactive”.

On to `NCC[C@@H]1CC[C@@H](NC(=O)C2CCC2)[C@H](CO)O1`, for which the cytotoxicity call in the experiment on HSkMC and in the experiment on HepG2 was “inactive” each time. Besides, the growth inhibition call in the experiment on S. aureus RN4220 was “inactive”.

Consider `COc1ccc(NC(=O)N(C)C[C@H]2OCCCC[C@@H](C)Oc3ccc(NS(=O)(=O)c4ccccc4)cc3C(=O)N([C@@H](C)CO)C[C@@H]2C)cc1`, for which the cytotoxicity call with HSkMC and in the experiment with HepG2 was “inactive” each time. The growth inhibition call with S. aureus RN4220 is “inactive”.

With `C[C@H](CO)N1C[C@H](C)[C@H](CN(C)S(=O)(=O)c2cccs2)Oc2c(NC(=O)C3CC3)cccc2C1=O`, the cytotoxicity call in the experiment with HSkMC and in the experiment with HepG2 was “inactive” throughout. Also, the growth inhibition call in the experiment with S. aureus RN4220 was “inactive”.

On to `C[C@@H]1CN([C@H](C)CO)C(=O)c2cc(NC(=O)Cn3cnnn3)ccc2O[C@H]1CN(C)C(=O)Nc1ccc(C(F)(F)F)cc1`, for which the cytotoxicity call in the experiment on HSkMC and in the experiment on HepG2 was “inactive” throughout. Moreover, in the experiment on S. aureus RN4220, the growth inhibition call was “inactive”.

`Cc1noc(C)c1NC(=O)Nc1ccc2c(c1)C(=O)N([C@H](C)CO)C[C@@H](C)[C@H](CN(C)S(=O)(=O)c1ccc(Cl)cc1)OCCCC[C@H](C)O2`: the cytotoxicity call in the experiment on HSkMC (human skeletal muscle cells) and in the experiment with HepG2 was “inactive” throughout. In addition, the growth inhibition call with S. aureus RN4220 was “inactive”.

In the case of `C[C@@H]1CCCCO[C@H](CN(C)C(=O)c2ccncc2)[C@@H](C)CN([C@@H](C)CO)C(=O)c2cc(NC(=O)C3CCCCC3)ccc2O1`, the cytotoxicity call in the experiment with HSkMC and in the experiment with HepG2 was “inactive” throughout. Also, the growth inhibition call with S. aureus RN4220 is “inactive”.

Turning to `C[C@@H]1CN([C@@H](C)CO)C(=O)Cc2cc(NS(=O)(=O)c3ccc(F)cc3)ccc2O[C@@H]1CN(C)S(=O)(=O)c1cn(C)cn1`, the cytotoxicity call with HSkMC and in the experiment with HepG2 was “inactive” each time. The growth inhibition call in the experiment on S. aureus RN4220 was “inactive”.

On to `COc1ccc(NC(=O)N(C)C[C@H]2OCCCC[C@H](C)Oc3ccc(NC(=O)CCC(F)(F)F)cc3C(=O)N([C@H](C)CO)C[C@@H]2C)cc1`, for which the cytotoxicity call in the experiment with HSkMC and with HepG2 was “inactive” throughout. Moreover, in the experiment on S. aureus RN4220, the growth inhibition call was “inactive”.

For the compound `C[C@H](CO)N1C[C@H](C)[C@H](CN(C)Cc2ccc(C(F)(F)F)cc2)Oc2ccc(NC(=O)Nc3ccc4c(c3)OCO4)cc2C1=O`, the cytotoxicity call with HSkMC and with HepG2 was “inactive” each time. The growth inhibition call with S. aureus RN4220 was “inactive”.
